What all share (experiment): Viability of human cancer cell lines after 72 h of drug (GDSC screen)
Compound in test [1]: C=CC(=O)Nc1cc(NC(=O)c2ccc(C)c(NC(=O)c3ccno3)c2)cc(C(F)(F)F)c1 [QL-XI-92]
As to conditions: top dose 10.24 µM; top dose inferred. The protocol: (§1)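 Human cancer cell lines in 384-well plates, medium with 10% serum, drug for 72 h over a 256-fold dose range (nine 2-fold or five 4-fold steps up to the top dose). Adherent lines were fixed and stained with the nucleic acid dye Syto60, suspension lines read with resazurin; signal relative to control wells, capped at 0 and 100%. One two-parameter sigmoid per drug and line, fitted in a mixed model over all curves with the slope shared within a line.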

Compound in test [2]: COc1cc2nccc(Oc3ccc(NC(=O)C4(C(=O)Nc5ccc(F)cc5)CC4)cc3)c2cc1OC [XL-184]
As to conditions: top dose 5.12 µM; top dose inferred. The protocol: as §1

Compound in test [3]: CNCc1ccc(-c2[nH]c3cc(F)cc4c3c2CCNC4=O)cc1 [AG-014699]
As to conditions: top dose 5 µM; top dose inferred. The protocol:
as §1

Compound in test [4]: O=c1cc(CN2CCOCC2)occ1OCCCCCSc1ccnc2cc(C(F)(F)F)ccc12 [EHT 1864]
As to conditions: top dose 10 µM; top dose inferred. On the procedure: as §1

Compound in test [5]: COc1cc2ncnc(Nc3cc(Br)c(O)c(Br)c3)c2cc1OC [WHI-P97]
As to conditions: top dose 10.24 µM; top dose inferred. On the procedure:
as §1

Compound in test [6]: CCC1=C[C@@H]2CN(C1)Cc1c([nH]c3ccccc13)[C@@](C(=O)OC)(c1cc3c(cc1OC)N(C)[C@H]1[C@@](O)(C(=O)OC)[C@H](OC(C)=O)[C@]4(CC)C=CCN5CC[C@]31[C@@H]54)C2 [Vinorelbine]
As to conditions: top dose 0.064 µM; top dose inferred. The protocol: as §1

Compound in test [7]: N=C(N)NC(=N)NCCc1ccccc1 [Phenformin]
The settings on record: top dose 4000 µM; top dose inferred. The protocol: as §1

By IC50 is meant the dose at which the fit gives 50% viability; where the fit passes the top or lowest dose, that dose stands as a limit. The AUC spans the tested range (256-fold, ending at the top dose) of the same fit; it is 1 without any effect and falls as sensitivity rises. Any top dose called inferred was calculated from the reported fits.

As a reminder, the IC50 is the concentration that inhibits the measured activity by half. In the case of HPAF-II (pancreas, adherent), the AUC amounted to 0.955 in test [1]; 0.864 in test [2]; 0.94 in test [3]; 0.907 in test [4]; 0.934 in test [5]; 0.692 in test [6]. The AUC in test [7] was determined as 0.83. The IC50 in test [1] is greater than 10.2 µM; in test [2], greater than 5.12 µM; in test [3] it was greater than 5 µM; in test [4], greater than 10 µM; in test [5], greater than 10.2 µM; in test [6], 16.5 nM. Further, the IC50 in test [7] is 3.66 mM.
Take HSC-3 (head and neck, adherent): the AUC worked out at 0.971 in test [1]; 0.986 in test [2]; 0.99 in test [3]; 0.979 in test [4]; 0.974 in test [5]; 0.577 in test [6]. The AUC in test [7] is 0.85. For the same cell line, the IC50 in test [1] was greater than 10.2 µM; in test [2] it was greater than 5.12 µM; in test [3] it was greater than 5 µM; in test [4], greater than 10 µM; in test [5], greater than 10.2 µM; in test [6] it was 6.27 nM. The IC50 in test [7] stood at 2.38 mM.
As for HTC-C3 (thyroid, adherent), the AUC in test [1] was determined as 0.907; in test [2] it was 0.89; in test [3], 0.958; in test [4] it was 0.95; in test [5], 0.93; in test [6] it was 0.777. The AUC in test [7] is 0.96. Moreover, the IC50 in test [1] was greater than 10.2 µM; in test [2] it was greater than 5.12 µM; in test [3], greater than 5 µM; in test [4], greater than 10 µM; in test [5], greater than 10.2 µM; in test [6] it was 29.1 nM. In addition, in test [7], the half-maximal inhibitory concentration (IC50) is greater than 4 mM.
For the cell line Hs940-T (melanoma, adherent), the AUC turned out to be 0.833 in test [1]; 0.984 in test [2]; 0.984 in test [3]; 0.957 in test [4]; 0.984 in test [5]; 0.622 in test [6]. Moreover, the AUC in test [7] stood at 0.972. Moreover, the concentration for half-maximal inhibition (IC50) was 8.67 µM in test [1]; greater than 5.12 µM in test [2]; greater than 5 µM in test [3]; greater than 10 µM in test [4]; greater than 10.2 µM in test [5]; 9.31 nM in test [6]. Further, in test [7], the IC50 was greater than 4 mM.
IM-95 (stomach, adherent): the AUC came to 0.983 in test [1]; 0.789 in test [2]; 0.964 in test [3]; 0.925 in test [4]; 0.986 in test [5]; 0.482 in test [6]. Moreover, the AUC in test [7] amounted to 0.702. Also, the half-maximal inhibitory concentration (IC50) in test [1] is greater than 10.2 µM; in test [2], 2.43 µM; in test [3], greater than 5 µM; in test [4], greater than 10 µM; in test [5] it was greater than 10.2 µM; in test [6] it was 3.57 nM. For the same cell line, in test [7], the IC50 was 0.967 mM.
With “K-562 (chronic myeloid leukaemia, suspension)”, the AUC in test [1] was determined as 0.677; in test [2] it was 0.708; in test [5], 0.949; in test [7] it was 0.481. The IC50 in test [1] was 1.96 µM; in test [2], 1.21 µM; in test [5], greater than 10.2 µM; in test [7] it was 0.223 mM.
Regarding KP-4 (pancreas, adherent), the AUC worked out at 0.95 in test [1]; 0.941 in test [2]; 0.934 in test [3]; 0.937 in test [4]; 0.985 in test [5]; 0.442 in test [6]. Moreover, the IC50 in test [1] was greater than 10.2 µM; in test [2], greater than 5.12 µM; in test [3] it was greater than 5 µM; in test [4] it was greater than 10 µM; in test [5] it was greater than 10.2 µM; in test [6], 2.8 nM.
With “NCI-H1299 (large cell lung carcinoma, adherent)”, the AUC worked out at 0.97 in test [1]; 0.936 in test [3]; 0.947 in test [4]; 0.96 in test [5]; 0.626 in test [7]. The concentration for half-maximal inhibition (IC50) was greater than 10.2 µM in test [1]; greater than 5 µM in test [3]; greater than 10 µM in test [4]; greater than 10.2 µM in test [5]; 0.603 mM in test [7].
In the case of “NCI-H1573 (lung adenocarcinoma, adherent)”, the AUC in test [1] came out at 0.985; in test [2], 0.985; in test [3], 0.988; in test [4] it was 0.959; in test [5] it was 0.976; in test [7], 0.962. Besides, the IC50 in test [1] is greater than 10.2 µM; in test [2], greater than 5.12 µM; in test [3], greater than 5 µM; in test [4], greater than 10 µM; in test [5], greater than 10.2 µM; in test [7], greater than 4 mM.
Take “NCI-H1650 (lung adenocarcinoma, adherent)”: the AUC in test [3] is 0.981; in test [4], 0.969. Further, the IC50 was greater than 5 µM in test [3] and greater than 10 µM in test [4].
With “NCI-H1793 (lung adenocarcinoma, adherent)”, the AUC came to 0.978 in test [1]; 0.964 in test [2]; 0.96 in test [3]; 0.913 in test [4]; 0.964 in test [5]; 0.878 in test [7]. Besides, the IC50 is greater than 10.2 µM in test [1]; greater than 5.12 µM in test [2]; greater than 5 µM in test [3]; greater than 10 µM in test [4]; greater than 10.2 µM in test [5]; greater than 4 mM in test [7].
